Measured values reported in patent publication US9486506B2 (Novo Nordisk A/S, priority 2011, dated 2016).
At least one compound was matched to its structure with a doubt left. Numbered stars: 1 amine (or outer) side, 2 acyl side, 3 side chain; on linkers, the order of the positions; unused ones are H or OH. Side chains are listed from the residue outwards. Peptide text beside a SMILES is read from it. * marks the point of attachment. C18 diacid = O=C(O)CCCCCCCCCCCCCCCCC(=O)*; C16 diacid = O=C(O)CCCCCCCCCCCCCCC(=O)*; γGlu = O=C(O)[C@H](CCC(=O)[*:2])N[*:1]; AEEA = NCCOCCOCC(=O)O

assay: Assay (II) ThT fibrillation assay for physical stability; assay type: physicochemical; settings: pH 7.5

Question: For CC(C)C[C@H](NC(=O)[C@H](CC(=O)O)NC(=O)[C@H](CC(C)C)NC(=O)[C@H](Cc1ccc(O)cc1)NC(=O)[C@H](CCCNC(=N)N)NC(=O)[C@H](CO)NC(=O)[C@H](Cc1ccc(O)cc1)NC(=O)[C@H](CC(=O)O)NC(=O)[C@H](CO)NC(=O)[C@@H](NC(=O)[C@H](Cc1ccccc1)NC(=O)[C@@H](NC(=O)CNC(=O)[C@H](CCC(N)=O)NC(=O)[C@H](CO)NC(=O)[C@@H](N)Cc1c[nH]cn1)[C@@H](C)O)[C@@H](C)O)C(=O)N[C@@H](CCCNC(=N)N)C(=O)N[C@@H](CCCNC(=N)N)C(=O)N[C@@H](C)C(=O)N[C@@H](CCC(N)=O)C(=O)N[C@@H](CC(=O)O)C(=O)N[C@@H](Cc1ccccc1)C(=O)N[C@H](C(=O)N[C@@H](CCCCNC(=O)CC[C@H](NC(=O)CC[C@H](NC(=O)CC[C@H](NC(=O)CC[C@H](NC(=O)CCCCCCCCCCCCCCCCC(=O)O)C(=O)O)C(=O)O)C(=O)O)C(=O)O)C(=O)N[C@@H](Cc1c[nH]c2ccccc12)C(=O)N[C@@H](CC(C)C)C(=O)N[C@@H](CC(C)C)C(=O)N[C@@H](CO)C(=O)N[C@H](C(=O)O)[C@@H](C)O)C(C)C [Example 86, N^ε24-[(4S)-4-carboxy-4-[[(4S)-4-carboxy-4-[[(4S)-4-carboxy-4-[[(4S)-4-carboxy-4-(17-carboxyheptadecanoylamino)butanoyl]amino]butanoyl]amino]butanoyl]amino]butanoyl]-[Arg12,Leu16,Lys24,Leu27,Ser28]-Glucagon] (H-HSQGTFTSDYSRYLDLRRAQDFVK([γGlu-γGlu-γGlu-γGlu-C18 diacid])WLLST-OH), which “ThT assay [Lagtime]” value is on record?
Answer: 45 h

Question: With CC(C)C[C@H](NC(=O)[C@H](Cc1ccc(O)cc1)NC(=O)[C@H](CCCCN)NC(=O)[C@H](CO)NC(=O)[C@H](Cc1ccc(O)cc1)NC(=O)[C@H](CC(=O)O)NC(=O)[C@H](CO)NC(=O)[C@@H](NC(=O)[C@H](Cc1ccccc1)NC(=O)[C@@H](NC(=O)CNC(=O)[C@H](CCC(N)=O)NC(=O)[C@H](CO)NC(=O)[C@@H](N)Cc1c[nH]cn1)[C@@H](C)O)[C@@H](C)O)C(=O)N[C@@H](CC(=O)O)C(=O)N[C@@H](C)C(=O)N[C@@H](CCCNC(=N)N)C(=O)N[C@@H](CCCNC(=N)N)C(=O)N[C@@H](C)C(=O)N[C@@H](CCC(N)=O)C(=O)N[C@@H](CC(=O)O)C(=O)N[C@@H](Cc1ccccc1)C(=O)N[C@H](C(=O)N[C@@H](CCCCNC(=O)CC[C@H](NC(=O)CC[C@H](NC(=O)COCCOCCNC(=O)COCCOCCNC(=O)CC[C@H](NC(=O)CCCCCCCCCCCCCCCCC(=O)O)C(=O)O)C(=O)O)C(=O)O)C(=O)N[C@@H](Cc1c[nH]c2ccccc12)C(=O)N[C@@H](CC(C)C)C(=O)N[C@@H](CCC(=O)O)C(=O)N[C@@H](CO)C(=O)N[C@H](C(=O)O)[C@@H](C)O)C(C)C [Example 57, N^ε24-[(4S)-4-carboxy-4-[[(4S)-4-carboxy-4-[[2-[2-[2-[[2-[2-[2-[[(4S)-4-carboxy-4-(17-carboxyheptadecanoylamino)butanoyl]amino]ethoxy]ethoxy]acetyl]amino]ethoxy]ethoxy]acetyl]amino]butanoyl]amino]butanoyl]-[Ala16,Lys24,Glu27,Ser28]-Glucagon] as the compound, how does the “ThT assay [Lagtime]” value read?
Answer: 3.3 h

Question: With CC(C)C[C@H](NC(=O)[C@H](CC(=O)O)NC(=O)[C@H](CC(C)C)NC(=O)[C@H](Cc1ccc(O)cc1)NC(=O)[C@H](CCCCN)NC(=O)[C@H](CO)NC(=O)[C@H](Cc1ccc(O)cc1)NC(=O)[C@H](CC(=O)O)NC(=O)[C@H](CO)NC(=O)[C@@H](NC(=O)[C@H](Cc1ccccc1)NC(=O)[C@@H](NC(=O)CNC(=O)[C@H](CCC(N)=O)NC(=O)[C@H](CO)NC(=O)[C@@H](N)Cc1c[nH]cn1)[C@@H](C)O)[C@@H](C)O)C(=O)N[C@@H](CCCNC(=N)N)C(=O)N[C@@H](CCCNC(=N)N)C(=O)N[C@@H](C)C(=O)N[C@@H](CCC(N)=O)C(=O)N[C@@H](CC(=O)O)C(=O)N[C@@H](Cc1ccccc1)C(=O)N[C@H](C(=O)N[C@@H](CCCCNC(=O)CC[C@H](NC(=O)CC[C@H](NC(=O)CC[C@H](NC(=O)CC[C@H](NC(=O)CCCCCCCCCCCCCCCCC(=O)O)C(=O)O)C(=O)O)C(=O)O)C(=O)O)C(=O)N[C@@H](Cc1c[nH]c2ccccc12)C(=O)N[C@@H](CC(C)C)C(=O)N[C@@H](CC(C)C)C(=O)N[C@@H](CO)C(=O)N[C@H](C(N)=O)[C@@H](C)O)C(C)C [Example 77, N^ε24-[(4S)-4-carboxy-4-[[(4S)-4-carboxy-4-[[(4S)-4-carboxy-4-[[(4S)-4-carboxy-4-(17-carboxyheptadecanoylamino)butanoyl]amino]butanoyl]amino]butanoyl]amino]butanoyl]-[Leu16,Lys24,Leu27,Ser28]-Glucagon amide] as the compound, how does the “ThT assay [Lagtime]” value read?
Answer: 45 h

Question: For CC(C)C[C@H](NC(=O)[C@H](CC(C)C)NC(=O)[C@H](Cc1c[nH]c2ccccc12)NC(=O)[C@H](CCCCNC(=O)CC[C@H](NC(=O)CC[C@H](NC(=O)COCCOCCNC(=O)COCCOCCNC(=O)CC[C@H](NC(=O)CCCCCCCCCCCCCCC(=O)O)C(=O)O)C(=O)O)C(=O)O)NC(=O)[C@@H](NC(=O)[C@H](Cc1ccccc1)NC(=O)[C@H](CC(=O)O)NC(=O)[C@H](CCC(N)=O)NC(=O)[C@H](C)NC(=O)[C@H](CCCNC(=N)N)NC(=O)[C@H](CCCNC(=N)N)NC(=O)[C@H](CC(C)C)NC(=O)[C@H](CC(=O)O)NC(=O)[C@H](CC(C)C)NC(=O)[C@H](Cc1ccc(O)cc1)NC(=O)[C@H](CCCNC(=N)N)NC(=O)[C@H](CO)NC(=O)[C@H](Cc1ccc(O)cc1)NC(=O)[C@H](CC(=O)O)NC(=O)[C@H](CO)NC(=O)[C@@H](NC(=O)[C@H](Cc1ccccc1)NC(=O)[C@@H](NC(=O)CNC(=O)[C@H](CCC(N)=O)NC(=O)[C@H](CO)NC(=O)[C@@H](N)Cc1c[nH]cn1)[C@@H](C)O)[C@@H](C)O)C(C)C)C(=O)N[C@@H](C)C(=O)N[C@H](C(=O)O)[C@@H](C)O [Example 89, N^ε24-[(4S)-4-carboxy-4-[[(4S)-4-carboxy-4-[[2-[2-[2-[[2-[2-[2-[[(4S)-4-carboxy-4-(15-carboxypentadecanoylamino)butanoyl]amino]ethoxy]ethoxy]acetyl]amino]ethoxy]ethoxy]acetyl]amino]butanoyl]amino]butanoyl]-[Arg12,Leu16,Lys24,Leu27,Ala28]-Glucagon] (H-HSQGTFTSDYSRYLDLRRAQDFVK([γGlu-γGlu-AEEA-AEEA-γGlu-C16 diacid])WLLAT-OH), which “ThT assay [Lagtime]” value is on record?
Answer: 45 h
